From US20220267438A1 (Janssen / Centocor, published 2022)

Legend:
[1] = molecular target: T1, human CD3 (CD3ε of the TCR/CD3 complex) on primary human pan T cells (human, UniProt P07766); assay: flow cytometry on human Pan-T cells (two donors), 1 hr 37 C, AF647 goat anti-human IgG
T1 construct: whole, on cells; On T cells CD3ε stands in the whole TCR/CD3 complex
Description: BGCB463 and BGCB491 were tested in a 1 hr, 37° C. DRC Pan-T binding assay. Two human Pan-T cell donors were used, and test molecules had 2 uM starting concentrations with a 1:3 dilution and 11 point DRC. Secondary detecting via Alexa Fluor® 647 AffiniPure Goat Anti-Human IgG (H+L). FACS was performed using Intellicyte Ique Screener plus.

[2] = molecular target: T2, human BCMA (B cell maturation antigen, TNFRSF17) on cells (human, UniProt Q02223 1-184); assay: flow cytometry, H929 GPRC5D-KO cells, 1 hour 37C DRC
T2 construct: whole, on cells; Target on H929 or MM.1R GPRC5D knockout cells, K562 cells expressing human BCMA, HEK293 cells of the cell microarray, and BCMA-only lymphoma lines; also called CD269; surface BCMA
T2 sequence (looked up): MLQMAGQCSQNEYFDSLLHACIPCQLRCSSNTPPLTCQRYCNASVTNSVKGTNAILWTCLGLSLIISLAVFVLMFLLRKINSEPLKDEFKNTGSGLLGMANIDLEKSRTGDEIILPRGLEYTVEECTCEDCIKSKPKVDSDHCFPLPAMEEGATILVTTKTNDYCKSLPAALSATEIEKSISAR
Description: (§1) BGCB463 and BGCB491 were tested against H929 WT, H929 BCMA-KO, H929 GPRC5D-KO, and H929 BCMA/GPRC5D double KO cells in a 1 hour, 37° C. DRC suite binding assay. Results shown in FIGS. 24A-24D, all with a null control (BGCB510).

[3] = molecular target: T2, human BCMA (B cell maturation antigen, …); assay: cell-based or functional assay
[4] = molecular target: T3, human GPRC5D (G-protein coupled receptor family C group 5 member D) on cells (human, UniProt Q9NZD1 1-345); assay: cell-based or functional assay
[5] = molecular target: T2, human BCMA (B cell maturation antigen, …); assay: cell-based or functional assay; remark: listed apart in the source
[6] = molecular target: T2, human BCMA (B cell maturation antigen, …); assay: cell-based or functional assay; remark: listed apart in the source
[7] = molecular target: T3, human GPRC5D (G-protein coupled …); assay: cell-based or functional assay; remark: listed apart in the source
[8] = molecular target: T1, human CD3 (CD3ε of the TCR/CD3 complex) …; assay: flow cytometry, pan T cells, donor D203727; estimated, fixed saturation point from bioinformatic extrapolation
Description: Flow cytometry was used to evaluate the CD3 arm (i.e., CD3B376) binding of BGCB491 to CD3⁺ pan T cells from 7 different healthy human. Cell-based EC₅₀ for CD3B376 could not be determined due to lack of saturation kinetics at 1 hour (FIG. 26). Bioinformatic extrapolation was performed (FIG. 27) using the CD3B376×Null control antibody (i.e., GCDB381) molecule, which saturates within 2 μM top concentration dose-response to constrain the top of the non-linear regression curve to generate a full curve that enables estimation of ECₓ values (Table 21).

[9] = molecular target: T3, human GPRC5D (G-protein coupled …); assay: flow cytometry, H929 BCMA-KO cells, 1 hour 37C DRC
Description: as §1

[10] = molecular target: T4, BCMW37 (recombinant human BCMA antigen) (human, UniProt Q02223 1-54, limits assumed); assay: SPR
T4 construct: also called BCMA BCMW37 chain; human BCMA (SPR antigen)
T4 sequence (looked up): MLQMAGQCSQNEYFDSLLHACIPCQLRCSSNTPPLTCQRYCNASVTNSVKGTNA

[11] = molecular target: T1, human CD3 (CD3ε of the TCR/CD3 complex) …; assay: flow cytometry, human pan T cells, Donor 1, 1 h 37C; Run 5
Description: For binding of BGCB463 to human and cynomolgus Pan T cells, three human donors (Hemacare) were selected, quickly thawed, resuspended, and aliquoted into a 96-well plate at 1×10⁶ cells/mL. Cells were then washed, Fc blocked if necessary (Innovex), and stained with viability dye (Invitrogen). BGCB463 and its corresponding isotype (B23B251) were diluted in complete media to an initial concentration of 2 μM and 1:3 serial dilutions in duplicate were performed for a dose-response curve. The cells were incubated with molecules at 4° C. or 37° C. for 1 hour. When necessary, incubation with 90% human serum (Sigma) was also performed as described above.
First, FACS-based binding for GPRC5D and BCMA binding arms of the trispecific molecule was determined by measuring the effective concentration (EC) range from a dose-response curve using a 4-parameter fit at 37° C. for 1 hr. This was assessed using an H929 suite of cells (WT, GPRC5D-KO, BCMA-KO, and GPRC5D/BCMA KO), and a similar MM.1R suite. Cell based EC₅₀ is approximately 13 nM for WT H929 (FIGS. 2A-2D, Table 7) and 2.4 nM for WT MM.1R (FIGS. 3A-3D, Table 8). […] Next, cell-based EC₅₀ was determined for the CD3-binding Fab arm using purified Pan T cells from three random donors. […] Next, dose responsive binding was assessed at 4° C. to remove any potential biological effects. […]

T3 sequence (Q9NZD1 whole entry): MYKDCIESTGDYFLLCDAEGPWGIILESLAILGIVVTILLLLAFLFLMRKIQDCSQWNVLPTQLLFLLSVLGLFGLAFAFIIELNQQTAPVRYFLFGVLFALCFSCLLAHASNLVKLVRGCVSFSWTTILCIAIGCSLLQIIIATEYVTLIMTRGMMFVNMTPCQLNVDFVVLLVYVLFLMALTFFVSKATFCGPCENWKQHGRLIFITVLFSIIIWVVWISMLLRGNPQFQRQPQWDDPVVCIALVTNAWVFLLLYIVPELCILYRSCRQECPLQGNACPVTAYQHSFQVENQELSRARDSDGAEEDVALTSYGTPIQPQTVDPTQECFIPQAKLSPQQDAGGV
T1 sequence (P07766 23-207, one chain of several): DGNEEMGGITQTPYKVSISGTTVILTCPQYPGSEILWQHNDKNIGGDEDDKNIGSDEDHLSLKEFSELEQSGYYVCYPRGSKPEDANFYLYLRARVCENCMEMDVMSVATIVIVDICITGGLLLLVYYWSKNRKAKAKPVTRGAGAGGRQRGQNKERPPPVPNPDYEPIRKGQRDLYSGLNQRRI

B1: BGCB491 (other)
heavy: QVQLQQSGPRLVRPSQTLSLTCAISGDSVFNNNAAWSWIRQSPSRGLEWLGRTYYRSKWLYDYAVSVKSRITVNPDTSRNQFTLQLNSVTPEDTALYYCARGYSSSFDYWGQGTLVTVSSASTKGPSVFPLAPSSKSTSGGTAALGCLVKDYFPEPVTVSWNSGALTSGVHTFPAVLQSSGLYSLSSVVTVPSSSLGTQTYICNVNHKPSNTKVDKKVEPKSCDKTHTCPPCPAPEAAGGPSVFLFPPKPKDTLMISRTPEVTCVVVSVSHEDPEVKFNWYVDGVEVHNAKTKPREEQYNSTYRVVSVLTVLHQDWLNGKEYKCKVSNKALPAPIEKTISKAKGQPREPQVYTLPPSREEMTKNQVSLSCAVKGFYPSDIAVEWESNGQPENNYKTTPPVLDSDGSFFLVSKLTVDKSRWQQGNVFSCSVMHEALHNRFTQKSLSLSPGKGGGGSGGGGSGGGGSGGGGS[letters of about 100 residues not shown]QFPHTFGQGTKLEIKGGSEGKSSGSGSESKSTGGSQVTLKESGPVLVKPTETLTLTCTVSGFSLTNIRMSVSWIRQPPGKALEWLAHIFSNDEKSYSTSLKSRLTISRDTSKSQVVLTLTNVDPVDTATYYCARMRLPYGMDVWGQGTTVTVSS
light: QSALTQPASVSGSPGQSITISCTGTSSNIGTYKFVSWYQQHPDKAPKVLLYEVSKRPSGVSSRFSGSKSGNTASLTISGLQAEDQADYHCVSYAGSGTLLFGGGTKLTVLGQPKAAPSVTLFPPSSEELQANKATLVCLISDFYPGAVTVAWKADSSPVKAGVETTTPSKQSNNKYAASSYLSLTPEQWKSHRSYSCQVTHEGSTVEKTVAPTECS
chain: EIVLTQSPGTLSLSPGERATLSCRASQSISSSFLTWYQQKPGQAPRLLIYGASSRATGIPDRFSGGGSGTDFTLTISRLEPEDFAVYYCQHYGSSPMYTFGQGTKLEIKGGSEGKSSGSGSESKSTGGS[letters of about 100 residues not shown]DEGYSSGHYYGMDVWGQGTTVTVSSEPKSSDKTHTCPPCPAPEAAGGPSVFLFPPKPKDTLMISRTPEVTCVVVSVSHEDPEVKFNWYVDGVEVHNAKTKPREEQYNSTYRVVSVLTVLHQDWLNGKEYKCKVSNKALPAPIEKTISKAKGQPREPQVYTLPPSREEMTKNQVSLWCLVKGFYPSDIAVEWESNGQPENNYKTTPPVLDSDGSFFLYSKLTVDKSRWQQGNVFSCSVMHEALHNHYTQKSLSLSPGK
notes: Trispecific IgG1 antibody (L234A, L235A, D265S); Heavy chain 1 = anti-CD3 (CD3B376) Fab heavy chain, hole and RF mutations, with C-terminal anti-GPRC5D scFv (GC5B680); Heavy chain 2 = anti-BCMA scFv (BCMB519) - Fc knob; also called JNJ-79635322; BCMA×GPRC5D×CD3 trispecific mAb
[1]
  EC50 (read off the curve): ~200 nM
[2]
  EC50: 210 nM
[3]
  Cytotoxicity EC50, 72 hrs, H929-GPRC5D KO: 0.322 nM
  Cytotoxicity EC50, 96 hrs, H929-GPRC5D KO: 0.226 nM
[4]
  Cytotoxicity EC50, 72 hrs, H929-BCMA KO: 4.52 nM
  Cytotoxicity EC50, 96 hrs, H929-BCMA KO: 2.76 nM
[5]
  Cytotoxicity EC50, Granta-519, 72 hours: 8.58 nM
  Cytotoxicity EC50, Ramos, 72 hours: 2.81 nM
  T-cell activation EC50, Granta-519, 72 hours: 1.64 nM
  T-cell activation EC50, Ramos, 72 hours: 1.39 nM
[6]
  T-cell activation EC50, 72 hrs, H929-GPRC5D KO: 0.52 nM
  T-cell activation EC50, 96 hrs, H929-GPRC5D KO: 0.48 nM
[7]
  T-cell activation EC50, 72 hrs, H929-BCMA KO: 3.11 nM
  T-cell activation EC50, 96 hrs, H929-BCMA KO: 3.46 nM
[8]
  EC50: 3370 nM
[9]
  EC50: 3180 nM
[10]
  Kd: 0.212 nM

B2: BGCB463 (other)
heavy: QVQLQQSGPRLVRPSQTLSLTCAISGDSVFNNNAAWSWIRQSPSRGLEWLGRTYYRSKWLYDYAVSVKSRITVNPDTSRNQFTLQLNSVTPEDTALYYCARGYSSSFDYWGQGTLVTVSSASTKGPSVFPLAPSSKSTSGGTAALGCLVKDYFPEPVTVSWNSGALTSGVHTFPAVLQSSGLYSLSSVVTVPSSSLGTQTYICNVNHKPSNTKVDKKVEPKSCDKTHTCPPCPAPEAAGGPSVFLFPPKPKDTLMISRTPEVTCVVVSVSHEDPEVKFNWYVDGVEVHNAKTKPREEQYNSTYRVVSVLTVLHQDWLNGKEYKCKVSNKALPAPIEKTISKAKGQPREPQVYTLPPSREEMTKNQVSLSCAVKGFYPSDIAVEWESNGQPENNYKTTPPVLDSDGSFFLVSKLTVDKSRWQQGNVFSCSVMHEALHNRFTQKSLSLSPGK
light: QSALTQPASVSGSPGQSITISCTGTSSNIGTYKFVSWYQQHPDKAPKVLLYEVSKRPSGVSSRFSGSKSGNTASLTISGLQAEDQADYHCVSYAGSGTLLFGGGTKLTVLGQPKAAPSVTLFPPSSEELQANKATLVCLISDFYPGAVTVAWKADSSPVKAGVETTTPSKQSNNKYAASSYLSLTPEQWKSHRSYSCQVTHEGSTVEKTVAPTECS
chain: [letters of about 100 residues not shown]QFPHTFGQGTKLEIKGGSEGKSSGSGSESKSTGGSQVTLKESGPVLVKPTETLTLTCTVSGFSLTNIRMSVSWIRQPPGKALEWLAHIFSNDEKSYSTSLKSRLTISRDTSKSQVVLTLTNVDPVDTATYYCARMRLPYGMDVWGQGTTVTVSSEPKSSDKTHTCPPCPAPEAAGGPSVFLFPPKPKDTLMISRTPEVTCVVVSVSHEDPEVKFNWYVDGVEVHNAKTKPREEQYNSTYRVVSVLTVLHQDWLNGKEYKCKVSNKALPAPIEKTISKAKGQPREPQVYTLPPSREEMTKNQVSLWCLVKGFYPSDIAVEWESNGQPENNYKTTPPVLDSDGSFFLYSKLTVDKSRWQQGNVFSCSVMHEALHNHYTQKSLSLSPGKGGSEGKSSGSGSESKSTGGSEIVLTQSPGTLSLSPGERATLSCRASQSISSSFLTWYQQKPGQAPRLLIYGASSRATGIPDRFSGGGSGTDFTLTISRLEPEDFAVYYCQHYGSSPMYTFGQGTKLEIKGGSEGKSSGSGSESKSTGGS[letters of about 100 residues not shown]DEGYSSGHYYGMDVWGQGTTVTVSS
notes: Trispecific IgG1 antibody (L234A, L235A, D265S); Heavy chain 1 = anti-CD3 (CD3B376) Fab heavy chain with hole and RF mutations; also called BGCB463.003; BGCB463.004
[1]
  EC50 (read off the curve): ~100 nM
[2]
  EC50: 504 nM
[3]
  Cytotoxicity EC50, 72 hrs, H929-GPRC5D KO: 2.06 nM
  Cytotoxicity EC50, 96 hrs, H929-GPRC5D KO: 1.58 nM
[4]
  Cytotoxicity EC50, 72 hrs, H929-BCMA KO: 0.539 nM
  Cytotoxicity EC50, 96 hrs, H929-BCMA KO: 0.269 nM
[11]
  EC50: 103 nM
[5]
  Cytotoxicity EC50, Granta-519, 72 hours: 81 nM
  T-cell activation EC50, Granta-519, 72 hours: 3.3 nM
  T-cell activation EC50, Ramos, 72 hours: 17.6 nM
[6]
  T-cell activation EC50, 72 hrs, H929-GPRC5D KO: 3.14 nM
  T-cell activation EC50, 96 hrs, H929-GPRC5D KO: 3.51 nM
[7]
  T-cell activation EC50, 72 hrs, H929-BCMA KO: 0.517 nM
  T-cell activation EC50, 96 hrs, H929-BCMA KO: 0.445 nM
[9]
  EC50: 11700 nM
[10]
  Kd: 0.844 nM
